Test results as given in the supplement of paper PMC4166925.
± gives the standard deviation of the averaged measurements. Whole data set: some 33,000 sequences, median “E-score (dimensionless, -0.5 to 0.5)” near -0.049, cut for the highest 2% near 0.37. This is one part of the list.

Test system: T1, PmTbr T-box DNA-binding domain (GST fusion)
T1 sequence: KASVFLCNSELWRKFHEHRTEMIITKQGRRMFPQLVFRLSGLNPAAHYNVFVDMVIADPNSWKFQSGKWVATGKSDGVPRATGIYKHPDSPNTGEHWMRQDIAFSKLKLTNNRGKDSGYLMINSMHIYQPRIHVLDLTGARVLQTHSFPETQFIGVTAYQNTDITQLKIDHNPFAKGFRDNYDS
Assay: PBM E-score of 8-mer (E-score (dimensionless, -0.5 to 0.5)); Tbr is Tbrain of the sea star Patiria miniata (Pm) or the sea urchin Strongylocentrotus purpuratus (Sp); higher = stronger binding preference; most listed sequences are background and not binding sites
Conditions: the construct has about 5 more residues each side
Procedure, shortened: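 Each ungapped 8-mer received an enrichment E-score from the Universal PBM Analysis Suite, averaged over duplicate arrays. The proteins were Tbr T-box DNA-binding domains, covering the whole T-box plus about five flanking residues, fused to GST and expressed in BL21 E. coli at 20 °C before glutathione affinity purification. Universal Agilent oligonucleotide arrays were made double-stranded by primer extension and incubated with 200 nM protein in PBS (pH 7.5). The arrays were then scanned and quantified, and every 8-mer was scored from probe intensities.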

| Sequence | PBM E-score of 8-mer |
| --- | --- |
| AATAGTAA | -0.3255 ± 0.0021 |
| ATGTTGGC | 0.0657 ± 0.011 |
| AAGTGACC | 0.185 ± 0.041 |
| CGAAGGCA | 0.0921 ± 0.055 |
| CTCTTGGC | -0.00769 ± 0.04 |
| CGCGTCAC | 0.294 ± 0.018 |
| CCTTTGAC | -0.055 ± 0.073 |
| CCAACTTA | -0.0514 ± 0.045 |
| GAAGCTGC | 0.156 ± 0.04 |
| ATTTCAGG | 0.0227 ± 0.019 |
| GCCATTGA | -0.0667 ± 0.06 |
| AAGACTAA | -0.0794 ± 0.0078 |
| AATGTGAG | 0.206 ± 0.041 |
| GTTTAAAA | -0.219 ± 0.036 |
| ATGTCACA | 0.375 ± 0.013 |
| TGATGGAA | 0.116 ± 0.052 |
| AGAATGCG | 0.107 ± 0.031 |
| AGCAGCCG | -0.0704 ± 0.04 |
| ATCTCGCA | 0.317 ± 0.017 |
| TCAGCCAA | -0.125 ± 0.052 |
| CGACTGCC | 0.0131 ± 0.019 |
| ATTAAACG | -0.0973 ± 0.063 |

| Sequence | PBM E-score of 8-mer |
| --- | --- |
| GACCTTCA | -0.0991 ± 0.0084 |
| ACAGCTCG | 0.174 ± 0.04 |
| CTAGTAAA | -0.159 ± 0.08 |
| ACAGGCGA | 0.199 ± 0.062 |
| CTGGCTTC | -0.171 ± 0.062 |
| ACGAAAAC | 0.0807 ± 0.018 |
| CTATCGTC | -0.0403 ± 0.021 |
| ATCCCAAC | -0.171 ± 0.1 |
| CAAAACTG | 0.142 ± 0.074 |
| AAAGTCGT | 0.0432 ± 0.056 |
| AAGCGGCT | -0.13 ± 0.072 |
| AAGGACGT | -0.0609 ± 0.036 |
| TATGGGGA | -0.156 ± 0.065 |
| ACATGCCG | -0.0613 ± 0.045 |
| ATCATAGA | -0.219 ± 0.029 |
| TAGCGCTA | 0.325 ± 0.016 |
| ATCGGTAC | -0.231 ± 0.006 |
| AATCGAGC | -0.0356 ± 0.036 |
| CTGACGGA | 0.0968 ± 0.011 |
| ACACCAAG | 0.35 ± 0.005 |
| CCAAGGGA | 0.0414 ± 0.029 |
| AACTTCTG | 0.0659 ± 0.019 |

| Sequence | PBM E-score of 8-mer |
| --- | --- |
| CCGCGTAC | -0.0889 ± 0.065 |
| ACCGACGC | 0.0942 ± 0.0072 |
| CCTTCACA | 0.395 ± 0.014 |
| CACGGCGA | 0.0573 ± 0.037 |
| ACTACTCC | -0.212 ± 0.046 |
| GATGTATA | -0.0616 ± 0.063 |
| TCCTGGAA | -0.252 ± 0.046 |
| CCCACACC | 0.43 ± 0.019 |
| GGTGTTCA | 0.324 ± 0.0065 |
| AGGTGACC | 0.172 ± 0.052 |
| AGCAGCAT | -0.126 ± 0.0032 |
| CGAGCTGA | 0.0975 ± 0.039 |
| ACTTTTGC | 0.111 ± 0.018 |
| GTACCTAC | -0.272 ± 0.061 |
| ACCTGTTA | 0.338 ± 0.007 |
| CTCACCGA | 0.00965 ± 0.039 |
| AGACTAGC | -0.0927 ± 0.069 |
| CTAGCGTA | 0.0249 ± 0.015 |
| AAGTTGCT | 0.184 ± 0.0078 |
| CGCACTGA | 0.0701 ± 0.012 |
| ACAGGACA | 0.124 ± 0.026 |
| ACCCGCCG | -0.0199 ± 0.075 |

| Sequence | PBM E-score of 8-mer |
| --- | --- |
| GCTAAGGA | -0.08306 ± 0.00035 |
| CGACAGCG | 0.0991 ± 0.029 |
| TACGAATA | -0.232 ± 0.098 |
| GGACACTA | -0.00856 ± 0.0064 |
| AGTATCGA | 0.0288 ± 0.027 |
| ACACCCAA | 0.368 ± 0.035 |
| AGGCATTG | -0.162 ± 0.068 |
| CAGTGGGG | -0.103 ± 0.035 |
| GAGGAAAC | -0.0461 ± 0.075 |
| ACCAGGCC | -0.1037 ± 0.00028 |
| TAAATCGA | -0.142 ± 0.0037 |
| CCCGCTAA | 0.279 ± 0.0095 |
| AACAGATA | 0.0778 ± 0.067 |
| ACCTATAA | 0.177 ± 0.018 |
| ATCGAGTC | 0.0243 ± 0.001 |
| CTGCTGTC | 0.0602 ± 0.021 |
| GACTTACA | 0.142 ± 0.0076 |
| CACTAGTA | 0.215 ± 0.033 |
| GCGGTGCC | 0.0932 ± 0.011 |
| GATGCCTA | -0.266 ± 0.048 |
| GATGCCAC | 0.182 ± 0.072 |
| AGTTTCGC | 0.261 ± 0.051 |

| Sequence | PBM E-score of 8-mer |
| --- | --- |
| ACCTTAAC | 0.0595 ± 0.0064 |
| GGTGTATA | 0.159 ± 0.024 |
| AACCGTCC | -0.225 ± 0.0078 |
| ATTAAGAG | -0.239 ± 0.14 |
| ACCAGCCC | -0.239 ± 0.047 |
| ATCCGACA | 0.196 ± 0.028 |
| CACCACAC | 0.367 ± 0.018 |
| CGTGACAG | 0.27 ± 0.015 |
| CCGAAGCA | 0.0424 ± 0.051 |
| CAACATTG | 0.155 ± 0.054 |
| AGCGCGGG | 0.0685 ± 0.027 |
| CATGTAGA | -0.259 ± 0.061 |
| GCTGGATA | -0.236 ± 0.029 |
| ATCTGCAC | -0.008 ± 0.0075 |
| GACTTTCC | 0.078 ± 0.021 |
| AGACGATG | -0.249 ± 0.026 |
| CGCGGTGC | 0.0712 ± 0.026 |
| AGGGGAGG | -0.223 ± 0.07 |
| ATCCACAT | 0.0364 ± 0.013 |
| AAACAGTG | -0.0598 ± 0.022 |
| CAACTTCG | 0.118 ± 0.017 |
| AGCGTCCA | -0.302 ± 0.039 |
